PubChem BioAssay AID485281 (National Center for Advancing Translational Sciences (NCATS), 2010)
“And” between values parts separate entries of the source, which are not always exact repeats. Equal entries are not always repeated. Hit rate of the full screen: of about 350,000 compounds, about 260 (0.074%) were called active. The shares of active, inactive and inconclusive entries below differ from those in the screen. Calls follow the shape of the dose curve; as a rule, active = well fitted inhibition curve with a large enough effect; inconclusive = small, poorly fitted or top-dose-only effect; inactive = no such curve, though single readings can be large or run the other way. Potencies beside an inconclusive call are fits to weak or partial responses and may not hold up.

biological target: Ferritin light chain (Equus caballus) (UniProt P02791); experiment: qHTS Assay for Identification of Novel General Anesthetics; conditions: apoferritin/1-aminoanthracene competitive binding, fluorescence; series mostly up to 77.5 µM; also: nearly all actives have a fitted effect of over 20% in size
UniProt P02791, sequence (P02791 whole entry, looked up): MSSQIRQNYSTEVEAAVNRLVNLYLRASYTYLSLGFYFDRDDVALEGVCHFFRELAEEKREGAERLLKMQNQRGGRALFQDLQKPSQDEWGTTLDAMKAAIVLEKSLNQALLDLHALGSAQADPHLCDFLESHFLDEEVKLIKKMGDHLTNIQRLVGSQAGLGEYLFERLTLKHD
Method in brief: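 Probe: 1-aminoanthracene (50% saturated, PBS). Protein: horse-spleen apoferritin, 10 uM. Incubation: 10 min, room temperature. Detection: 380 nm excitation, 535 nm emission. Analysis: normalized response, four-parameter Hill.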
Potency is read from the fitted curve at half-maximal effect; tags tell the direction and shape of the fitted curve.

Row | Structure (SMILES) | Potency
1 | CCC(=O)Nc1nc(-c2ccccc2)ns1 | inactive
2 | Cc1cccc(N2CCN(C(=O)c3c(C)oc4ncnc(N5CCOCC5)c34)CC2)c1C | inactive
3 | CN[C@@H](CCCN=C(N)N)C(=O)N[C@@H](CCCCN)C(=O)N1CCC[C@H]1C(=O)N[C@@H](Cc1c[nH]c2ccccc12)C(=O)N[C@H](C(=O)N[C@H](CC(C)C)C(=O)O)C(C)(C)C | inactive
4 | COc1ccc(NC(=O)OCC(C)C)cc1OC | inconclusive: 28.2 µM [inhibitor, partial curve]
5 | COc1cccc(CNC(=S)Nc2cccc(Cl)c2C)c1 | inactive
6 | COc1ccccc1N1C(=O)c2ccccc2NC1C(OC)OC (configuration not stated) | inactive
7 | CCn1c(SCC(=O)N2c3ccccc3Sc3ccccc32)nnc1-c1ccco1 | inconclusive: 14.1 µM [inhibitor, partial curve]
8 | COc1ccc(-c2cn3c(n2)sc2cc(C(=O)NC4CCCCCC4)ccc23)cc1 | inconclusive: 6.31 µM [inhibitor, full curve]
9 | Cc1sc2nc[nH]c(=O)c2c1-c1ccc(F)cc1 | inconclusive: 20 µM [inhibitor, partial curve]
10 | CC(=O)c1c(C)oc2ccc(N(C(=O)Oc3ccccc3)S(=O)(=O)c3ccccc3)cc12 | inactive
11 | COc1cccc(NC(=O)c2ccc(N3C(=O)C4CC=C(C)CC4C3=O)cc2)c1 (configuration not stated) | inconclusive: 50.1 µM [inhibitor, single point]
12 | CC(CNC(=O)c1cc(-c2ccccc2)n[nH]1)c1ccccc1 (configuration not stated) | inconclusive: 28.2 µM [inhibitor, single point]
13 | O=C(CS(=O)c1ccc(C(F)(F)F)cc1[N+](=O)[O-])Oc1ccccc1 (configuration not stated) | inconclusive: 39.8 µM [inhibitor, partial curve]
14 | CCCOc1ccc(-c2nonc2NC(=O)c2oc3ccc(Cl)cc3c2C)cc1OCCC | inactive
15 | N#C/C(=C\c1cccnc1)C(=O)Nc1ccccc1 | inactive
16 | CCOc1ccc(S(=O)(=O)c2cn(Cc3ccccc3C)c3ccc(OC)cc3c2=O)cc1 | inconclusive: 3.16 µM [inhibitor, full curve]
17 | Cc1cc(Br)ccc1NCc1ccccn1 | inconclusive: 39.8 µM [inhibitor, partial curve]
18 | CC1(C)OC(=O)CC1C(=O)NCc1ccccc1 (configuration not stated) | inactive
19 | Cn1c(=O)n(C)c2cc([N+](=O)[O-])c(N3CCN(S(=O)(=O)c4ccc5ccccc5c4)CC3)cc21 | inactive
20 | O=C(NCc1cn(-c2ccccc2)nc1-c1ccccc1)c1cc([N+](=O)[O-])cc([N+](=O)[O-])c1 | inconclusive: 28.2 µM [inhibitor, partial curve]
21 | Cc1cc(N2CCOCC2)nc2ccc(NC(=O)CCC(=O)N3CCCCC3)cc12 | inactive
22 | O=C(NCc1ccccn1)c1cccc(NS(=O)(=O)c2ccccc2F)c1 | inconclusive: 25.1 µM [inhibitor, partial curve]
23 | O=C(CSc1nc(-c2cccs2)nc2cc(=O)[nH]n12)Nc1cccc(C(F)(F)F)c1 | inconclusive: 6.31 µM [inhibitor, full curve, poor fit]

Row | Structure (SMILES) | Potency
24 | O=C(/C=C/c1ccc(N2CCC(c3ccccc3)=N2)cc1)c1ccccc1 | inconclusive: 22.4 µM [inhibitor, single point]
25 | COC(=O)c1ccc(C(c2c(N)n(CC(C)C)c(=O)[nH]c2=O)N2CCN(c3ccccc3)CC2)cc1 (configuration not stated) | inconclusive: 20 µM [inhibitor, partial curve]
26 | COC(=O)c1ccc(CSc2nc(-c3ccccc3)cs2)o1 | inconclusive: 14.1 µM [inhibitor, partial curve]
27 | Cc1cc(C)c(O)c(-c2cc(C(=O)Nc3ccc(S(=O)(=O)N4CCOCC4)cc3)[nH]n2)c1 | inconclusive: 25.1 µM [inhibitor, partial curve, poor fit]
28 | Cc1cc(C)c2nc(NNC(=O)c3ccc(S(=O)(=O)N4CCCCC4)cc3)sc2c1 | inconclusive: 28.2 µM [inhibitor, partial curve]
29 | O=C1Nc2ccccc2/C1=C/C(=O)c1cccs1 | inconclusive: 31.6 µM [inhibitor, partial curve]
30 | COc1ccc(CCNC(c2ccc(F)cc2)c2nnc(-c3ccccc3Cl)o2)cc1OC (configuration not stated) | inactive
31 | COc1ccc(OCc2cc(C(=O)N[C@H]3CCCCNC3=O)no2)c(Cl)c1 | inconclusive: 39.8 µM [inhibitor, single point]
32 | NNC(=S)NCCc1ccccc1 | inconclusive: 25.1 µM [inhibitor, partial curve]
33 | COc1ccc(-c2nnc3n2N=C(c2ccccc2OC)CS3)c(OC)c1 | inactive
34 | O=C(COC(=O)c1cccc(S(=O)(=O)N2CCOCC2)c1)Nc1ncc(C(F)(F)F)cc1Cl | inconclusive: 35.5 µM [inhibitor, partial curve]
35 | NNC(=O)c1nc[nH]c1C(=O)Nc1ccccc1 | inconclusive: 14.1 µM [inhibitor, partial curve]
36 | Cc1ccccc1-c1noc(-c2cccnc2N2CCN(c3ccccc3)CC2)n1 | inconclusive: 25.1 µM [inhibitor, partial curve]
37 | C[C@H](C(=O)CC(=O)OC(C)(C)C)[C@H](O)c1ccc(C(F)(F)F)cc1 | inconclusive: 28.2 µM [inhibitor, partial curve]
38 | COc1cccc(C(=O)Nc2cccc(-c3cn4ccsc4n3)c2)c1OC | inactive
39 | Cc1cc2cc(CNC(=O)c3ccc(S(=O)(=O)N4CCOCC4)cc3)ccc2n1C | inconclusive: 56.2 µM [inhibitor, single point]
40 | CSc1ccccc1NC(=O)c1onc(C)c1Cl | inconclusive: 28.2 µM [inhibitor, partial curve]
41 | Nc1nonc1-n1nnc(C(=O)N/N=C/c2cccs2)c1-c1ccc2c(c1)OCO2 | inconclusive: 5.01 µM [inhibitor, full curve, poor fit]
42 | COc1ccc(NC(=O)c2ccc3c(SCC(=O)O)c4c(nc3c2)CCCC4)c(OC)c1 | inactive and inconclusive: 7.1 nM [inhibitor, full curve]
43 | Cc1ccc2c(c1)N=C(c1ccc(F)cc1)CO2 | inconclusive: 31.6 µM [inhibitor, partial curve]
44 | CCCNC(=O)NC(=O)CSc1nc2ccccc2n1CC(C)C | inconclusive: 2.82 µM [inhibitor, partial curve, poor fit]
45 | CC1CCc2sc(C(=O)N(C)CC(=O)Nc3cccc(F)c3)cc2C1 (configuration not stated) | inconclusive: 22.4 µM [inhibitor, partial curve]
46 | CCOC(=O)C(CSCC(=O)c1ccc(Cl)cc1Cl)NC(=O)OC(C)(C)C (configuration not stated) | inconclusive: 35.5 µM [inhibitor, partial curve, poor fit]

Row | Structure (SMILES) | Potency
47 | Cc1cccc(-c2nc3c4ccccc4n(Cc4cccc(Cl)c4)c(=O)n3n2)c1 | inactive
48 | Cc1c(Cl)ccc2c(C(N)=O)cc(-c3ccccn3)nc12 | inactive
49 | CC(C)CCNC(=O)CCS(=O)(=O)c1cccc2nonc12 | inactive
50 | CCOC(=O)c1ccc(Nc2ccc(-c3ccc(OC)c(OC)c3)nn2)cc1 | inconclusive: 31.6 µM [inhibitor, single point]
51 | CC(=O)c1cccc(Nc2nc(-c3cccc(C)c3)nc3ccccc23)c1 | inactive
52 | Cc1cc(NCCOCCO)n2ncc(-c3ccc(Cl)cc3)c2n1 | inactive
53 | Cc1c(C(=O)N2c3ccccc3CC2C)oc2ccccc12 (configuration not stated) | inconclusive: 15.8 µM [inhibitor, partial curve]
54 | CCOC(=O)c1sc(NNC(=O)c2ccc(C)cc2)nc1C | inactive
55 | Clc1ccccc1N/N=C/c1ccc2c(c1)OCO2 | inactive
56 | CCOc1ncccc1C(=O)OCC(=O)c1cc(C)n(Cc2ccco2)c1C | inconclusive: 35.5 µM [inhibitor, single point]
57 | O/N=C/CCn1c(=S)sc2ccccc21 | inconclusive: 25.1 µM [inhibitor, partial curve]
58 | CCN(CC)CCN(C)c1ccc(N2C(=O)C3CC=CCC3C2=O)cc1[N+](=O)[O-] (configuration not stated) | inconclusive: 7.08 µM [inhibitor, partial curve]
59 | Cc1cc(=O)[nH]c(SCc2ccccc2)n1 | inconclusive: 15.8 µM [inhibitor, partial curve]
60 | COc1ccc(/C=N/NC(=O)c2ccncc2)cc1Cn1nc([N+](=O)[O-])c(Br)c1C | inconclusive: 39.8 µM [inhibitor, partial curve]
61 | O=C(CSc1nnc(COc2ccccc2)n1Cc1ccco1)c1ccc(F)cc1 | inconclusive: 31.6 µM [inhibitor, partial curve]
62 | Cc1ccc(N2CC(C(=O)Nc3nnc(SCc4ccccn4)s3)CC2=O)cc1 (configuration not stated) | inconclusive: 20 µM [inhibitor, partial curve]
63 | NC(=O)CC(NC(=O)c1ccc(Br)cc1)c1ccc(N2CCCCCC2)c([N+](=O)[O-])c1 (configuration not stated) | inconclusive: 35.5 µM [inhibitor, partial curve]
64 | Cc1ccc(NC(=O)c2cc([N+](=O)[O-])ccc2NCc2cccnc2)cc1 | inconclusive: 17.8 µM [inhibitor, partial curve]
65 | O=C1CCCN1c1ccc(S(=O)(=O)Oc2ccc(Cl)cc2)cc1[N+](=O)[O-] | inconclusive: 39.8 µM [inhibitor, partial curve]
66 | COC(=O)CCNC(=O)NC(CCC(C)C)c1c(-n2cccc2)sc2c1CCN(C)C2 (configuration not stated) | inconclusive: 20 µM [inhibitor, partial curve]
67 | Nc1n[nH]c(C2CC2)c1N=Nc1ccc(Cl)c(Cl)c1 | inconclusive: 28.2 µM [inhibitor, single point]
